# Measurements: the supplement of paper PMC3334620
# In all, about 33,000 sequences were measured (“E-score (-0.5 to 0.5)”: median about -0.021, highest 2% from about 0.32 on). The list shows a part of the results.
# Target: T1, Zap1 (UniProt P47043)
# T1 sequence: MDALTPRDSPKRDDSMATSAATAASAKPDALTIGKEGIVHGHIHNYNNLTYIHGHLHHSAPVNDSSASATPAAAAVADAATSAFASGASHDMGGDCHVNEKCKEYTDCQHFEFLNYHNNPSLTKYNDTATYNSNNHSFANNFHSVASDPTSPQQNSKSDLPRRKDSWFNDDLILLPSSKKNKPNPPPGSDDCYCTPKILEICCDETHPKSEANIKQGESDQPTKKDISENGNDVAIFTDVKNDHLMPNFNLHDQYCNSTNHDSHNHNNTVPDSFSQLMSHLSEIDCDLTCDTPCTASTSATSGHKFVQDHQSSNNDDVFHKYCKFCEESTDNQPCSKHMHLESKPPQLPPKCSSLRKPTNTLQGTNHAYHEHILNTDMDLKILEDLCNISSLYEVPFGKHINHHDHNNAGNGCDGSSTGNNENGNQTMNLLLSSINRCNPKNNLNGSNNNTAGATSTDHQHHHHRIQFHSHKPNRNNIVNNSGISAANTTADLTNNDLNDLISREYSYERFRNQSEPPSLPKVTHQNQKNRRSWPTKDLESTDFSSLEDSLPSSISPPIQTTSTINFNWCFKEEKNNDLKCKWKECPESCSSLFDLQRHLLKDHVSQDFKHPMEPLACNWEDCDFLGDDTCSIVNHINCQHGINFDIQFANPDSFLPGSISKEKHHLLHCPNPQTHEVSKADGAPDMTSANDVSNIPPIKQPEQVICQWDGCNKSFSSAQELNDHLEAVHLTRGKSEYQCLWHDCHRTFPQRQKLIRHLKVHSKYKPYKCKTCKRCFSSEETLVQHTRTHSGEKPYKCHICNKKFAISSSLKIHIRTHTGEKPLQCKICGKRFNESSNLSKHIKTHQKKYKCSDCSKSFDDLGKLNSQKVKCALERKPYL
# Test: PBM E-score (8-mer binding enrichment) (E-score (-0.5 to 0.5)); higher = stronger / more preferred TF binding; most listed sequences are background and not binding sites
# Details: protein concentration: 200 nM; construct: GST-full length
# Protocol: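 Universal 'all 10-mer' protein binding microarrays (Agilent AMADID 015681) probed with GST-tagged S. cerevisiae TFs (full-length or DBD) made by in vitro transcription/translation (PURExpress), about 100-200 nM. Bound TF was detected with fluorescent anti-GST. Each ungapped 8-mer (which stands for itself and its reverse complement) is scored by the PBM enrichment score (E-score), a modified Wilcoxon-Mann-Whitney statistic from -0.5 to +0.5, computed with the Universal PBM Analysis Suite. Scale: above 0.35 generally sequence-specific binding.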
row,Sequence,PBM E-score
1,CGCATCAG,0.0143
2,CCGCAACA,0.162
3,CCGTTCTA,0.111
4,CGCGCCAA,0.0785
5,TGAAGGAA,-0.0768
6,ATATCACC,0.0316
7,ACGGGTCG,0.116
8,ATTTAATG,0.176
9,ACATTGGA,-0.106
10,ATGTAGCC,-0.131
11,ACGAAGCT,-0.141
12,AGAGCCGC,-0.169
13,CCGAGCCG,-0.165
14,ATCAACCA,0.0761
15,CCGGTTAC,0.398
16,GGTCCTAC,-0.105
17,ATGATCAA,0.241
18,ATTCTTGA,0.0771
19,ATTGCCCG,-0.208
20,GCTGATCA,-0.0643
21,TATTGAAA,0.201
22,AGCGCTGA,-0.156

row,Sequence,PBM E-score
1,CATGGCAG,-0.0211
2,AATGGGGA,-0.0221
3,GTCACCAA,0.0469
4,TGGGGGAA,-0.399
5,ACGCGCTG,-0.148
6,CCACGGTA,0.0158
7,GACACAAC,0.161
8,AAACAGTA,-0.0723
9,GCATATGA,0.0416
10,AAGAGTTA,0.121
11,AATGGGCG,-0.204
12,CGAGCCTA,-0.191
13,CCTTTAGC,0.0766
14,CATACCGC,0.0183
15,GCCTCCAC,-0.239
16,AGCTCGTG,-0.00259
17,ACCGATCC,-0.145
18,AAACGTTT,0.0998
19,CTGCACGA,0.123
20,CTGTGCCC,-0.171
21,AGTGTTCA,0.00139
22,GAGGAGAC,-0.324

row,Sequence,PBM E-score
1,ACCCGTCC,-0.0889
2,GAAACCAA,0.271
3,AAGCGCGC,0.0553
4,ACGTGCTG,0.0361
5,TCCGGGCA,-0.222
6,CCGAGTTC,0.0438
7,TCCTAGAA,-0.0357
8,ATAGGGCC,-0.158
9,CCTCGATC,0.0275
10,CGATACGC,-0.106
11,AATATGGC,-0.0625
12,AGTGCACA,-0.0937
13,CAAAATGC,0.0356
14,AGCCTGTC,-0.221
15,GCTATGTA,-0.116
16,CCATGAGA,0.094
17,GTGGGATA,0.0249
18,ATCAGTGG,0.0702
19,ACATTGGG,0.0155
20,TACTTAGA,0.113
21,ATTCTACA,0.104
22,AAATTGGG,-0.00439

row,Sequence,PBM E-score
1,AGAGGGCC,-0.128
2,ACCAGGCA,-0.12
3,CTAACGCC,-0.117
4,ACGAATCC,-0.0963
5,TACAACCA,0.319
6,CTTTTATA,-0.00494
7,AGCTCTCC,-0.263
8,CCGCAGTC,-0.0761
9,CCTTACAG,0.221
10,TTGATCAA,0.0851
11,ACGGACGA,0.0125
12,CCAAGCCC,-0.226
13,CAGTAACA,-0.0862
14,GTTGCGGA,0.105
15,ATGTTTTA,0.171
16,AGCATCTG,-0.0599
17,TAACCTGA,0.317
18,AGAGAGCC,-0.245
19,CAATGAAC,0.00263
20,ACACCACG,0.0192
